Test results from article PMC4336329 (PLoS ONE, 2015).
Among all 310,000 compounds or so, about 14,000 (4.5%) showed an effect of 50% or more. The effect is printed as a negative number. This is one part of the list.

Molecular target: human ether-à-go-go-related gene (hERG) potassium channel (human, UniProt Q12809)
Test: primary screen, population patch clamp on CHO cells stably expressing hERG
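Also: peak tail current of the secondary pulse compared with the same well before compound.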

human ether-à-go-go-related gene (hERG) potassium channel, sequence (Q12809 whole entry, looked up): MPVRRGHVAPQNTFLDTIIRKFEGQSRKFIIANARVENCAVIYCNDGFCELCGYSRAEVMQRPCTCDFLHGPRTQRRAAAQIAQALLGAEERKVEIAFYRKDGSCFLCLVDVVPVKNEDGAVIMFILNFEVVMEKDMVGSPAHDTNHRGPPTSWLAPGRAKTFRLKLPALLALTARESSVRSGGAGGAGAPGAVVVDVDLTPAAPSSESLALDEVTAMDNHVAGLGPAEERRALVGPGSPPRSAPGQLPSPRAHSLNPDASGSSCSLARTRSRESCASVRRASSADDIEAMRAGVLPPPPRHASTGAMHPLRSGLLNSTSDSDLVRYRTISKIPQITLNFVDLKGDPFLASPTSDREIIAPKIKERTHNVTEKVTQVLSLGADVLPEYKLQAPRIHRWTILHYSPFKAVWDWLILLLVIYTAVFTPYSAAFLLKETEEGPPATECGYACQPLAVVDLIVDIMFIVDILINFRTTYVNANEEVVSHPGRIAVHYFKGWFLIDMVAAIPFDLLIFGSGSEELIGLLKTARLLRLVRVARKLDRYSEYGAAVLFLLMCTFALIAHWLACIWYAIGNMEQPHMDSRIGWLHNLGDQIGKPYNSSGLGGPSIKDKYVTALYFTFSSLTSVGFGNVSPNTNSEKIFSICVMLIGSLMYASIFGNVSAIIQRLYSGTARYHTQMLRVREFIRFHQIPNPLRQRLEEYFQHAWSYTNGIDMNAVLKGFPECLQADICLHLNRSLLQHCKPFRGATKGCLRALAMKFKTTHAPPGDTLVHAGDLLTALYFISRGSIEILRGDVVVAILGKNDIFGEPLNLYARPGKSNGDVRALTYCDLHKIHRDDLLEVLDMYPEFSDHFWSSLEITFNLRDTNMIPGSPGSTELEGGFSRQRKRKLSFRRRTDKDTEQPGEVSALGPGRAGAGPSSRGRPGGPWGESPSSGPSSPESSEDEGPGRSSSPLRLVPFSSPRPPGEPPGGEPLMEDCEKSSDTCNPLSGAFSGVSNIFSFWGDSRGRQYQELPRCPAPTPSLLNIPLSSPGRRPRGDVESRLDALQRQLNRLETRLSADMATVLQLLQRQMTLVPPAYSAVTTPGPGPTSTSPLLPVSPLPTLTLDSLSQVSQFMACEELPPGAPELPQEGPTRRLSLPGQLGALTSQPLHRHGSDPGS

**Q.** For `CCC(Sc1nc2n[nH]c(C)c2c(=N)n1-c1cccc(Cl)c1)C(=O)NCCOC` (stereo not shown), which “hERG current change (%, negative = inhibition) at 10uM” value is on record?
**A.** -23.4%

**Q.** With `COc1ccccc1NC(=O)N1CCCC1C(=O)NCc1cccs1` (stereo not shown) as the compound, how does the “hERG current change (%, negative = inhibition) at 10uM” value read?
**A.** 0.509%

**Q.** Which “hERG current change (%, negative = inhibition) at 10uM” value does the source give for `COc1cc(OC)cc(-c2nc(-c3ccc(Br)cc3)no2)c1` here?
**A.** 11%

**Q.** How did the “hERG current change (%, negative = inhibition) at 10uM” value turn out when `Cc1ccc(C=Nc2ccc(N(C)C)cc2)o1` was run?
**A.** -0.267%

**Q.** For `Cc1ccnc(SCCn2c(N3CCN(c4ccccc4)CC3)nc3c2c(=O)[nH]c(=O)n3C)n1`, which “hERG current change (%, negative = inhibition) at 10uM” value is on record?
**A.** -17.3%

**Q.** `COc1ccc(Cl)cc1S(=O)(=O)NCc1cccnc1` was tested. Which “hERG current change (%, negative = inhibition) at 10uM” value did it give?
**A.** -1.75%

**Q.** With `Cc1nc(-c2ccc(F)cc2)c(CC(=O)N(C)CC(=O)Nc2ccccc2Cl)s1` as the compound, how does the “hERG current change (%, negative = inhibition) at 10uM” value read?
**A.** 15.8%

**Q.** With `Cc1ccc(C(=O)NCC(=O)N2CCCCCC2)cc1` as the compound, how does the “hERG current change (%, negative = inhibition) at 10uM” value read?
**A.** 21.5%

**Q.** With `COCC(C)OC(=O)c1c(N)n(-c2ccc(OC)c(OC)c2)c2nc3ccccc3nc12` (stereo not shown) as the compound, how does the “hERG current change (%, negative = inhibition) at 10uM” value read?
**A.** -27.1%

**Q.** For `Cc1ccc(-c2ccnc3nc(-n4cccc4)nn23)o1`, which “hERG current change (%, negative = inhibition) at 10uM” value is on record?
**A.** 8.59%

**Q.** For `C#CCSc1n[nH]c(=O)n1-c1cccc(C(F)(F)F)c1`, which “hERG current change (%, negative = inhibition) at 10uM” value is on record?
**A.** -0.283%

**Q.** With `COC(=O)C1=C(c2ccc(-c3ccccc3)c(F)c2)C[C@@H]2CC[C@H]1N2C(=O)NCCc1ccccc1` as the compound, how does the “hERG current change (%, negative = inhibition) at 10uM” value read?
**A.** 25%

**Q.** For `O=S(=O)(c1ccc(NC(=S)N/N=C/c2ccc(O)c(O)c2)cc1)N1CCOCC1`, which “hERG current change (%, negative = inhibition) at 10uM” value is on record?
**A.** 21.3%

**Q.** With `O=c1[nH]c(CN2CCN(S(=O)(=O)c3ccc(Cl)cc3)CC2)nc2cc(Cl)ccc12` as the compound, how does the “hERG current change (%, negative = inhibition) at 10uM” value read?
**A.** -11.8%

**Q.** With `CCn1c(COc2ccc(=O)n(-c3ccccc3)n2)n[nH]c1=S` as the compound, how does the “hERG current change (%, negative = inhibition) at 10uM” value read?
**A.** 23.3%

**Q.** `Cc1cccc(C(=O)N(NC(=O)Oc2ccccc2)C(C)(C)C)c1` was tested. Which “hERG current change (%, negative = inhibition) at 10uM” value did it give?
**A.** -13%

**Q.** For `Cc1ccn2c(C(=O)NNC(=O)Nc3ccc(Cl)cc3)c(C)nc2c1`, which “hERG current change (%, negative = inhibition) at 10uM” value is on record?
**A.** -12.3%

**Q.** With `CC(OC(=O)c1cc(S(=O)(=O)N2CCOCC2)ccc1Br)C(=O)N1CCOCC1` (stereo not shown) as the compound, how does the “hERG current change (%, negative = inhibition) at 10uM” value read?
**A.** -12%

**Q.** Which “hERG current change (%, negative = inhibition) at 10uM” value does the source give for `COc1ccccc1-c1nn2c(C3COc4ccccc4O3)nnc2s1` (stereo not shown) here?
**A.** -1.05%

**Q.** With `O=C(c1ccccc1)c1ccc(N2CCN(C(=O)c3cccc(F)c3F)CC2)c(F)c1` as the compound, how does the “hERG current change (%, negative = inhibition) at 10uM” value read?
**A.** -37.9%

**Q.** How did the “hERG current change (%, negative = inhibition) at 10uM” value turn out when `O=C(Nc1ccc(S(=O)(=O)NCc2ccco2)cc1)c1ccc2ccccc2n1` was run?
**A.** -0.235%

**Q.** How did the “hERG current change (%, negative = inhibition) at 10uM” value turn out when `COc1cccc(CN(C(=O)c2ccccc2)C2CCS(=O)(=O)C2)c1` (stereo not shown) was run?
**A.** -0.754%

**Q.** For `COC(=O)C(Cc1ccccc1)NC(=O)CNS(=O)(=O)c1ccc(Br)cc1` (stereo not shown), which “hERG current change (%, negative = inhibition) at 10uM” value is on record?
**A.** -18.9%

**Q.** For `CCCc1nc2sc3c(c2c(=O)n1N)CCC3`, which “hERG current change (%, negative = inhibition) at 10uM” value is on record?
**A.** -3.93%

**Q.** `C=CCN(CC=C)Cc1ccc(C(=O)OC)o1` was tested. Which “hERG current change (%, negative = inhibition) at 10uM” value did it give?
**A.** -9.34%

**Q.** How did the “hERG current change (%, negative = inhibition) at 10uM” value turn out when `Cc1ccc(F)cc1NC(=O)Nc1cc(C(C)(C)C)nn1C` was run?
**A.** 15.6%

**Q.** Which “hERG current change (%, negative = inhibition) at 10uM” value does the source give for `CSC(=NC#N)N1CCN(c2ccc([N+](=O)[O-])cc2)CC1` here?
**A.** -77%

**Q.** With `CC(C)[C@H](NC(N)=O)C(=O)Nc1ccc(OCc2ccccc2)cc1` as the compound, how does the “hERG current change (%, negative = inhibition) at 10uM” value read?
**A.** 4.46%

**Q.** With `Cc1cccc(NC(=O)c2ccc(NCCO)c([N+](=O)[O-])c2)n1` as the compound, how does the “hERG current change (%, negative = inhibition) at 10uM” value read?
**A.** -48.8%

**Q.** Which “hERG current change (%, negative = inhibition) at 10uM” value does the source give for `Cc1ccc(CNC(=O)C2CCCC2)cc1` here?
**A.** 8.93%

**Q.** `Nc1c(C(=O)N2CCOCC2)sc2nc3c(cc12)CCCC3` was tested. Which “hERG current change (%, negative = inhibition) at 10uM” value did it give?
**A.** 10.7%

**Q.** `Cc1ccc(CN2CCC(c3cc(-c4cccs4)n[nH]3)CC2)cc1` was tested. Which “hERG current change (%, negative = inhibition) at 10uM” value did it give?
**A.** -82.1%

**Q.** Which “hERG current change (%, negative = inhibition) at 10uM” value does the source give for `COCCn1c(SCC(=O)Nc2ccc(C)cc2C)nc2c(oc3ccccc32)c1=O` here?
**A.** -9.43%

**Q.** `O=C(Nc1nc2ccc(S(=O)(=O)N3CCCCC3)cc2s1)c1ccncc1` was tested. Which “hERG current change (%, negative = inhibition) at 10uM” value did it give?
**A.** -34.6%

**Q.** For `O=C(NNc1ccc(-c2csnn2)cc1)c1cc(Cl)cc(Cl)c1`, which “hERG current change (%, negative = inhibition) at 10uM” value is on record?
**A.** 8.72%

**Q.** How did the “hERG current change (%, negative = inhibition) at 10uM” value turn out when `O=C(O)c1ccc(O)cc1O` was run?
**A.** 7.89%

**Q.** For `CCC(Oc1ccccc1)C(=O)Nc1ccccc1C(=O)N1CCOCC1` (stereo not shown), which “hERG current change (%, negative = inhibition) at 10uM” value is on record?
**A.** 16.7%

**Q.** Which “hERG current change (%, negative = inhibition) at 10uM” value does the source give for `CC(C)(C)NC(=O)Nc1ccc(Cn2cc(C(F)(F)F)ccc2=O)cc1` here?
**A.** 4.88%

**Q.** Which “hERG current change (%, negative = inhibition) at 10uM” value does the source give for `Cc1ccc(-c2cc(C(=O)NCC3CCCO3)c3ccccc3n2)cc1C` (stereo not shown) here?
**A.** 12.1%

**Q.** For `CC1=C(CC(=O)c2ccccc2)C(=O)c2ccccc2C1=O`, which “hERG current change (%, negative = inhibition) at 10uM” value is on record?
**A.** 4.35%

**Q.** How did the “hERG current change (%, negative = inhibition) at 10uM” value turn out when `CC(C)(C)[C@H]1C=C(C(=O)NC2CC2)O[C@@H](OCCCCO)C1` was run?
**A.** 18.4%

**Q.** `Cc1cccc(N=C2Sc3nc4c(C)c(C)ccc4cc3CN2CCN2CCOCC2)c1` was tested. Which “hERG current change (%, negative = inhibition) at 10uM” value did it give?
**A.** 17.3%

**Q.** With `Cc1coc2cc3oc(=O)c(CCC(=O)NCCN4CCOCC4)c(C)c3cc12` as the compound, how does the “hERG current change (%, negative = inhibition) at 10uM” value read?
**A.** -5.47%

**Q.** `CCC(Sc1nnc(C)c(=O)[nH]1)C(=O)Nc1cccc2ccccc12` (stereo not shown) was tested. Which “hERG current change (%, negative = inhibition) at 10uM” value did it give?
**A.** 10%

**Q.** `CCOc1ccc(Nc2cc(=O)n(C)c(=O)n2C)cc1` was tested. Which “hERG current change (%, negative = inhibition) at 10uM” value did it give?
**A.** -2.15%

**Q.** Which “hERG current change (%, negative = inhibition) at 10uM” value does the source give for `CC(C)(O)C#Cc1ccc(C(=O)N2CCN(c3ccc([N+](=O)[O-])cc3)CC2)cc1` here?
**A.** -70.4%

**Q.** `COc1ccc(CC(=O)NCc2n[nH]c(=S)n2-c2ccc(Br)cc2)cc1` was tested. Which “hERG current change (%, negative = inhibition) at 10uM” value did it give?
**A.** 13.4%

**Q.** For `O=C(NCc1ccc(Cl)cc1)C1CCC(CNc2c(N3CCOCC3)c(=O)c2=O)CC1` (stereo not shown), which “hERG current change (%, negative = inhibition) at 10uM” value is on record?
**A.** 14.9%

**Q.** Which “hERG current change (%, negative = inhibition) at 10uM” value does the source give for `Cn1cc(CNCCN2CCCCC2=O)c(-c2cccc(Cl)c2)n1` here?
**A.** 4.48%

**Q.** `NC(=O)CC(NC(=O)c1ccc(Br)cc1)c1ccc(NC2CCCCC2)c([N+](=O)[O-])c1` (stereo not shown) was tested. Which “hERG current change (%, negative = inhibition) at 10uM” value did it give?
**A.** 0.425%

**Q.** For `Cc1cc(NC(=O)CCC(=O)N(C(C(=O)NC(C)(C)C)c2ccccc2Cl)C(C)(C)C)no1` (stereo not shown), which “hERG current change (%, negative = inhibition) at 10uM” value is on record?
**A.** 20.8%

**Q.** `c1ccc(/N=C2\N=C(Nc3ccccn3)c3ccccc32)nc1` was tested. Which “hERG current change (%, negative = inhibition) at 10uM” value did it give?
**A.** -9.39%

**Q.** `O=C(O)CC(Cn1[nH]nnc1=S)c1ccccc1` (stereo not shown) was tested. Which “hERG current change (%, negative = inhibition) at 10uM” value did it give?
**A.** 3.18%

**Q.** `COc1ccccc1N(Cc1ccccc1)S(=O)(=O)c1cccc(C(=O)Nc2ncccc2C)c1` was tested. Which “hERG current change (%, negative = inhibition) at 10uM” value did it give?
**A.** -23.5%

**Q.** For `CC(=O)c1ccccc1N(C(=O)c1ccco1)C(C(=O)NC1CCCC1)c1ccc(N2CCOCC2)cc1` (stereo not shown), which “hERG current change (%, negative = inhibition) at 10uM” value is on record?
**A.** -4.77%
